{"source": "PubChem BioAssay AID1347073", "about": "(National Center for Advancing Translational Sciences (NCATS), 2019)", "note": "In all, about 45,000 compounds went through this assay and about 200 (0.44%) were called active. Another 7% or so got no clear call; they are omitted. Calls come from the whole dose curve; as a rule, active = well fitted activation curve with a large enough effect; inconclusive = small, poorly fitted or top-dose-only effect; inactive = no such curve, though single readings can be large or run the other way. This is one part of the list."}
{"assay": "qHTS of TDP-43 Inhibitors: NCGC Sytravon Library Screen; note: 0% is about no effect; nearly all actives have a fitted effect of over 55% in size", "conditions": "yeast TDP-43 toxicity rescue, BacTiter-Glo growth, 24 h; series mostly up to 46.1 µM; growth rescue (activation): at the top concentration", "summary_of_the_method": "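TDP-43-expressing yeast, pregrown in raffinose, seeded at OD600 0.02 in galactose medium with compound for 24 hr at 30 deg C. Growth read by BacTiter-Glo luminescence, so rescue of toxicity appears as activation.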"}
{"molecule": "O=C(NC(c1ccc(-c2ccccc2)cc1)c1cnccn1)C1CCN(CCOc2ccc(F)cc2)CC1", "note": "(configuration not stated)", "growth rescue (activation)": "inactive: 7.79%"}
{"molecule": "O=C(CN(C(=O)c1csnn1)c1ccc(Cl)cc1)NCCc1ccccc1", "growth rescue (activation)": "inactive: 2.42%"}
{"molecule": "O=C(Cc1cccs1)Nc1nc(-c2ccc(F)c(F)c2)cs1", "growth rescue (activation)": "inactive: 4.25%"}
{"molecule": "COc1ccc(C(=O)OCC(=O)C(C)(C)C)cc1S(=O)(=O)N(C)CCc1cccnc1", "growth rescue (activation)": "inactive: -16.8%"}
{"molecule": "O=C(NCc1ccccn1)c1cc(S(=O)(=O)N2CCCCCC2)ccc1Cl", "growth rescue (activation)": "inactive: 28%"}
{"molecule": "CCc1ccccc1NC(=O)C1(S(=O)(=O)c2ccc(C)cc2)CC1", "growth rescue (activation)": "inactive: 20.6%"}
{"molecule": "O=C(COC(=O)[C@@H]1CC(O)CN1S(=O)(=O)c1ccc(Cl)c(Cl)c1)NC(=O)NCc1ccccc1", "note": "(some centres not stated)", "growth rescue (activation)": "inactive: -3.88%"}
{"molecule": "CCOc1ccc(NC(=O)NCCN2CCN(c3ccccc3F)CC2)cc1", "growth rescue (activation)": "inactive: 6.27%"}
{"molecule": "CCN(Cc1nc(-c2ccccc2)no1)C(=O)c1ccco1", "growth rescue (activation)": "inactive: 33.1%"}
{"molecule": "COc1ccc(O)c(/C=N/Nc2nc3ccccc3[nH]2)c1", "growth rescue (activation)": "inactive: 12.3%"}
{"molecule": "Nn1c(SCc2ccc(Br)cc2)nnc1-c1ccccn1", "growth rescue (activation)": "inactive: -18.6%"}
{"molecule": "Cc1nc(SCC(=O)NC2CCCC2)c2c(C)c(C)sc2n1", "growth rescue (activation)": "inactive: 14.2%"}
{"molecule": "C=CCNC(=O)NC(=O)COC(=O)c1nc2nccc(C)n2n1", "growth rescue (activation)": "inactive: 1.77%"}
{"molecule": "C/C(=N\\NC(=O)CNC(=O)c1ccco1)c1ccc(Br)cc1", "growth rescue (activation)": "inactive: 8.29%"}
{"molecule": "CC(C)(CN1CCc2ccccc2C1)NS(=O)(=O)c1ccc(Cl)cc1", "growth rescue (activation)": "inactive: 5.37%"}
{"molecule": "Cc1noc(C(=O)NC2CCCCC2)c1Cl", "growth rescue (activation)": "inactive: -7.11%"}
{"molecule": "O=C(NC1CCOc2ccccc21)c1ccc(=O)[nH]c1", "note": "(configuration not stated)", "growth rescue (activation)": "inactive: -17.1%"}
{"molecule": "Cc1ccc(C(=O)N2CCOCC2)cc1S(=O)(=O)N1CCCC1", "growth rescue (activation)": "inactive: 3.99%"}
{"molecule": "CC1Cc2ccccc2N1S(=O)(=O)c1cccc(C(=O)NCCCn2ccnc2)c1", "note": "(configuration not stated)", "growth rescue (activation)": "inactive: 1.05%"}
{"molecule": "O=C(COc1ccccc1)Nc1nnc(COc2ccccc2)s1", "growth rescue (activation)": "inactive: 26.1%"}
{"molecule": "Cc1ccc([N+](=O)[O-])cc1S(=O)(=O)N1CCCN(C)CC1", "growth rescue (activation)": "inactive: 10.7%"}
{"molecule": "O=C(N/N=C1\\CCCc2oc(C(=O)O)cc21)c1ccccc1", "growth rescue (activation)": "inactive: 4.96%"}
{"molecule": "C=CCN1C(=O)/C(=c2\\sc3nc(=O)c(Cc4ccc(OC)c(OC)c4)nn3c2=O)c2ccccc21", "growth rescue (activation)": "inactive: -7%"}
{"molecule": "COc1ccc(CSCC(=O)Nc2ccccc2)cc1[N+](=O)[O-]", "growth rescue (activation)": "inactive: 18.7%"}
{"molecule": "O=C(NC(=S)NCC1CCCO1)c1ccc([N+](=O)[O-])cc1", "note": "(configuration not stated)", "growth rescue (activation)": "inactive: 26.2%"}
{"molecule": "CCCn1nc(Oc2nc(NC(C)C)nc(N(C)C)n2)ccc1=O", "growth rescue (activation)": "inactive: 12.6%"}
{"molecule": "COc1ccccc1NS(=O)(=O)c1ccc2oc(N)nc2c1", "growth rescue (activation)": "inactive: 5.51%"}
{"molecule": "Fc1ccc2c(c1)C(c1cccnc1)=NNC(c1cccs1)=N2", "growth rescue (activation)": "inactive: 18.2%"}
{"molecule": "Cc1ccc(C(=O)Nc2ccc3c(c2)CCC3)cc1S(=O)(=O)N1CCOCC1", "growth rescue (activation)": "inactive: 12.4%"}
{"molecule": "COc1ccc(NC(=S)NCC(c2cccnc2)N2CCOCC2)cc1", "note": "(configuration not stated)", "growth rescue (activation)": "inactive: 7.19%"}
{"molecule": "CCOC(=O)c1c(CSc2ccccc2)oc2cc(Br)c(O)c(CN(C)C)c12", "growth rescue (activation)": "inactive: -3.97%"}
{"molecule": "CCOC(=O)N(NC(=O)C(O)(c1ccccc1)c1ccccc1)c1ccccc1", "growth rescue (activation)": "inactive: 3.72%"}
{"molecule": "Cc1ccc(S(=O)(=O)N2CCN(S(=O)(=O)N3CCCCC3)CC2)cc1C", "growth rescue (activation)": "inactive: -6.09%"}
{"molecule": "O=c1[nH]c(N/N=C/c2ccccc2Br)nnc1-c1ccccc1", "growth rescue (activation)": "inactive: 0.541%"}
{"molecule": "O=C(Cc1ccccc1F)Nc1nc(-c2cccnc2)cs1", "growth rescue (activation)": "inactive: 8.08%"}
{"molecule": "CCOC(=O)c1c(NC(=O)c2cccc([N+](=O)[O-])c2C(=O)O)sc2c1CCCC2", "growth rescue (activation)": "inactive: 2.87%"}
{"molecule": "C#CCn1cc(/C=C2\\NC(=O)NC2=O)c2ccccc21", "growth rescue (activation)": "inactive: 7.65%"}
{"molecule": "Cc1c(CC(=O)N[C@H](C(=O)O)C(C)C)c(=O)oc2cc3c(cc12)CCC(C)(C)O3", "growth rescue (activation)": "inactive: -7.79%"}
{"molecule": "O=c1cc(CSc2nnc(C3CC3)n2Cc2ccccc2)nc2sccn12", "growth rescue (activation)": "inactive: 5.95%"}
{"molecule": "N#CC1=C(N)C2=CCCC[C@H]2[C@H](c2ccccc2)C1(C#N)C#N", "growth rescue (activation)": "inactive: 8.56%"}
{"molecule": "O=C(CCCn1c(=O)[nH]c2ccc(Br)cc2c1=O)NCc1ccc(Cl)cc1", "growth rescue (activation)": "inactive: 5.28%"}
{"molecule": "CCOC(=O)c1cnn2c(C(F)F)cc(C3CC3)nc12", "growth rescue (activation)": "inactive: 20.6%"}
{"molecule": "CC(=O)Nc1cccc(NC(=O)c2cc(Cl)ccc2Cl)c1", "growth rescue (activation)": "inactive: 2.42%"}
{"molecule": "CC(=O)NC(C(=O)OCC(=O)N(c1ccccc1)c1ccccc1)C(C)C", "note": "(configuration not stated)", "growth rescue (activation)": "inactive: 25.7%"}
{"molecule": "COc1ccc(OC)c(/C=N/NC(=O)c2ccc3nc[nH]c3c2)c1", "growth rescue (activation)": "inactive: 0.189%"}
{"molecule": "CCOC(=O)C1=C(C)N=C2SCCC(=O)N2C1c1sccc1C", "note": "(configuration not stated)", "growth rescue (activation)": "inactive: 8.16%"}
{"molecule": "O=C(O)c1ccccc1-c1ccccc1C(=O)Nc1nccs1", "growth rescue (activation)": "inactive: -0.59%"}
{"molecule": "CC(C)(C)NC(=O)NC(=O)COC(=O)Cn1cnc2ccccc2c1=O", "growth rescue (activation)": "inactive: -10.5%"}
{"molecule": "O=C(NNC(=S)NCc1ccc(Cl)cc1)c1ccc(Br)o1", "growth rescue (activation)": "inactive: 7.05%"}
{"molecule": "COc1cc2c(=O)n(CCC(=O)NCC3CCCO3)c(=O)n(CC(=O)Nc3ccc(F)cc3)c2cc1OC", "note": "(configuration not stated)", "growth rescue (activation)": "inactive: 17.1%"}
{"molecule": "COc1ccccc1C(=O)Nc1ccc(S(=O)(=O)Nc2cc(C)on2)cc1", "growth rescue (activation)": "inactive: -8.63%"}
{"molecule": "C=CCn1c(SCC(=O)Nc2ccc(N3CCOCC3)cc2)nnc1-c1ccco1", "growth rescue (activation)": "inactive: 7.14%"}
